{"source": "the supplement of paper PMC3334620", "note": "Whole data set: some 33,000 sequences, median “E-score (-0.5 to 0.5)” near -0.056, cut for the highest 2% near 0.38. This is one part of the list."}
{"target": "Stb4 (UniProt P50104)", "assay": "PBM E-score (8-mer binding enrichment) (E-score (-0.5 to 0.5)); higher = stronger / more preferred TF binding; most listed sequences are background and not binding sites", "conditions": "protein concentration: 200 nM; construct: GST-DNA-binding domain", "outline": "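PURExpress in vitro transcription/translation supplied GST-tagged yeast transcription factors, either full-length or DNA-binding domain. Applied at about 100-200 nM to universal all-10-mer Agilent arrays double-stranded by primer extension, the bound protein was detected with fluorescent anti-GST. E-scores, modified Wilcoxon-Mann-Whitney statistics, were given by the Universal PBM Analysis Suite to ungapped eight-base words pooled with their reverse complements after masliner normalisation.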"}
{"sequence": "CAATGAGC", "PBM E-score": -0.171}
{"sequence": "AAGTCATT", "PBM E-score": -0.211}
{"sequence": "AGAGGTAG", "PBM E-score": -0.29}
{"sequence": "TATAAAAA", "PBM E-score": 0.0563}
{"sequence": "CGAGCCCA", "PBM E-score": -0.0285}
{"sequence": "ACCGCTAC", "PBM E-score": -0.021}
{"sequence": "AGTCGCCC", "PBM E-score": -0.122}
{"sequence": "CGGCGTCC", "PBM E-score": 0.201}
{"sequence": "TGATCCAA", "PBM E-score": -0.00835}
{"sequence": "AAGTGGCC", "PBM E-score": -0.0655}
{"sequence": "ATTGCGTA", "PBM E-score": -0.117}
{"sequence": "ATAGCTAT", "PBM E-score": 0.125}
{"sequence": "CATCCGCG", "PBM E-score": 0.285}
{"sequence": "AATGACGT", "PBM E-score": -0.126}
{"sequence": "AAGTACTA", "PBM E-score": -0.0492}
{"sequence": "ATAAGGAT", "PBM E-score": -0.103}
{"sequence": "CGTAATGA", "PBM E-score": -0.0348}
{"sequence": "CTTGAAGA", "PBM E-score": -0.251}
{"sequence": "ACAGCTTA", "PBM E-score": -0.219}
{"sequence": "ACTATACA", "PBM E-score": -0.199}
{"sequence": "TAATATGA", "PBM E-score": 0.117}
{"sequence": "CGAGGGTA", "PBM E-score": 0.0333}
{"sequence": "AGACCGTG", "PBM E-score": -0.0481}
{"sequence": "ACGTGAGC", "PBM E-score": -0.109}
{"sequence": "AATCTACT", "PBM E-score": -0.0889}
{"sequence": "GCATCGAA", "PBM E-score": -0.189}
{"sequence": "AGCTCGCC", "PBM E-score": -0.0787}
{"sequence": "GCATCACA", "PBM E-score": -0.06}
{"sequence": "GTCTTGCA", "PBM E-score": 0.00052}
{"sequence": "GCCTACAC", "PBM E-score": -0.272}
{"sequence": "CTGCGGGA", "PBM E-score": 0.136}
{"sequence": "ATTCGTGG", "PBM E-score": -0.26}
{"sequence": "ACGCGTCA", "PBM E-score": -0.152}
{"sequence": "GTCTGACA", "PBM E-score": 0.0724}
{"sequence": "GAATCCGC", "PBM E-score": 0.206}
{"sequence": "TAACATCA", "PBM E-score": -0.176}
{"sequence": "ACCCAGGG", "PBM E-score": -0.274}
{"sequence": "CCGACCGC", "PBM E-score": 0.187}
{"sequence": "TAGGACGA", "PBM E-score": -0.182}
{"sequence": "AGCCACAC", "PBM E-score": -0.216}
{"sequence": "AAACTCAT", "PBM E-score": 0.105}
{"sequence": "CGCAGATC", "PBM E-score": -0.0103}
{"sequence": "CTGATACA", "PBM E-score": -0.0562}
{"sequence": "CGACTACG", "PBM E-score": 0.077}
{"sequence": "CGAGTCAA", "PBM E-score": -0.0247}
{"sequence": "CGGCGCCG", "PBM E-score": 0.369}
{"sequence": "TAAACTCA", "PBM E-score": 0.0247}
{"sequence": "AAGCCTAA", "PBM E-score": -0.0457}
{"sequence": "ATGCATGA", "PBM E-score": -0.0846}
{"sequence": "CTAGACTC", "PBM E-score": -0.137}
{"sequence": "AAGTCTCC", "PBM E-score": -0.103}
{"sequence": "CATGAGCA", "PBM E-score": -0.165}
{"sequence": "CAATTGTG", "PBM E-score": -0.0461}
{"sequence": "ATACCGTC", "PBM E-score": 0.0633}
{"sequence": "TGCGTGAA", "PBM E-score": 0.0669}
{"sequence": "CGAAACAG", "PBM E-score": 0.0698}
{"sequence": "AAGGGGTA", "PBM E-score": -0.161}
{"sequence": "AACACCGA", "PBM E-score": 0.232}
{"sequence": "AGGTGCAT", "PBM E-score": -0.0401}
{"sequence": "CAGCTGTC", "PBM E-score": -0.201}
{"sequence": "GCTACCAC", "PBM E-score": -0.225}
{"sequence": "AACTCTCC", "PBM E-score": 0.0711}
{"sequence": "AGACATGC", "PBM E-score": -0.00611}
{"sequence": "CATATGTA", "PBM E-score": -0.267}
{"sequence": "CTGTCCTC", "PBM E-score": -0.15}
{"sequence": "GACGTAGC", "PBM E-score": 0.00068}
{"sequence": "ACGCTACG", "PBM E-score": -0.0278}
{"sequence": "GTCAGGTA", "PBM E-score": -0.0721}
{"sequence": "ATAGAGCA", "PBM E-score": -0.228}
{"sequence": "CGTAAACA", "PBM E-score": 0.055}
{"sequence": "GTATGTGA", "PBM E-score": -0.0657}
{"sequence": "CTTCATTA", "PBM E-score": -0.247}
{"sequence": "GGACCAAC", "PBM E-score": 0.0837}
{"sequence": "TAGCTTCA", "PBM E-score": -0.337}
{"sequence": "CGACATGA", "PBM E-score": 0.0408}
{"sequence": "AGCTGACG", "PBM E-score": -0.231}
{"sequence": "ATATTCTA", "PBM E-score": 0.0111}
{"sequence": "TAGTGATA", "PBM E-score": -0.313}
{"sequence": "CTACTTCC", "PBM E-score": 0.202}
{"sequence": "AAATGGGC", "PBM E-score": -0.125}
{"sequence": "CGAGGTAC", "PBM E-score": 0.155}
{"sequence": "GTGCATTA", "PBM E-score": -0.128}
{"sequence": "GCAGCCTA", "PBM E-score": -0.153}
{"sequence": "TGTATACA", "PBM E-score": -0.1}
{"sequence": "CGAATCCA", "PBM E-score": 0.121}
{"sequence": "ATTTAAGC", "PBM E-score": -0.038}
{"sequence": "ACACCCAG", "PBM E-score": -0.196}
{"sequence": "TCCCTTCA", "PBM E-score": -0.306}
{"sequence": "AACATCGG", "PBM E-score": 0.29}
{"sequence": "AATAAGGG", "PBM E-score": -0.211}
{"sequence": "CTATCCAA", "PBM E-score": -0.268}
{"sequence": "GGCACCTA", "PBM E-score": 0.146}
{"sequence": "AGCATCTA", "PBM E-score": -0.0852}
{"sequence": "CACATCGG", "PBM E-score": 0.309}
{"sequence": "AAACATTG", "PBM E-score": -0.11}
{"sequence": "AGTCGAGC", "PBM E-score": -0.223}
{"sequence": "AGTAATTC", "PBM E-score": 0.133}
{"sequence": "AGAGAATA", "PBM E-score": -0.0783}
{"sequence": "CATTAGCG", "PBM E-score": -0.128}
{"sequence": "AGCGCATG", "PBM E-score": -0.226}
{"sequence": "AGAGATGA", "PBM E-score": -0.0223}
{"sequence": "AGCAGAAA", "PBM E-score": -0.087}
{"sequence": "ATGCTCAG", "PBM E-score": -0.115}
{"sequence": "GTTCATGA", "PBM E-score": 0.0541}
{"sequence": "CTCAATAC", "PBM E-score": 0.033}
{"sequence": "ATGAAGCA", "PBM E-score": -0.267}
{"sequence": "ACTTTGAC", "PBM E-score": -0.17}
{"sequence": "ACTAGAAA", "PBM E-score": -0.0015}
{"sequence": "AACCCAAC", "PBM E-score": -0.0126}
{"sequence": "GATTCCTA", "PBM E-score": 0.0036}
{"sequence": "TAGTCCCA", "PBM E-score": -0.219}
{"sequence": "AAACGAAC", "PBM E-score": -0.0827}
{"sequence": "CGCTACCA", "PBM E-score": 0.0369}
{"sequence": "GGAGATGA", "PBM E-score": -0.0948}
{"sequence": "TACGAGCA", "PBM E-score": -0.0169}
{"sequence": "GGTGATGA", "PBM E-score": -0.0768}
{"sequence": "CAACACCA", "PBM E-score": -0.243}
{"sequence": "CATCAACC", "PBM E-score": 0.00345}
{"sequence": "CATTTTGC", "PBM E-score": -0.0275}
{"sequence": "GGTCAACA", "PBM E-score": 0.0781}
{"sequence": "AGGGATAC", "PBM E-score": -0.198}
{"sequence": "AACCAGCG", "PBM E-score": 0.00653}
{"sequence": "GTTGCTGA", "PBM E-score": -0.162}
{"sequence": "CCTTTTCC", "PBM E-score": 0.0594}
{"sequence": "ACAAACAC", "PBM E-score": 0.0656}
{"sequence": "AAGACCGA", "PBM E-score": 0.238}
{"sequence": "AGCGCTAT", "PBM E-score": 0.0189}
{"sequence": "GCAGTTCA", "PBM E-score": -0.154}
{"sequence": "CGTTCTGA", "PBM E-score": -0.199}
{"sequence": "CCGGGTTA", "PBM E-score": 0.345}
{"sequence": "AGAACTCG", "PBM E-score": 0.0715}
{"sequence": "CAGGTTTC", "PBM E-score": 0.0331}
{"sequence": "AGTCACGA", "PBM E-score": -0.147}
{"sequence": "CCGGAGGC", "PBM E-score": 0.204}
{"sequence": "CTCTCACA", "PBM E-score": -0.274}
{"sequence": "CGTTACTA", "PBM E-score": -0.124}
{"sequence": "CTGTGAGA", "PBM E-score": -0.151}
{"sequence": "AAGCGCTC", "PBM E-score": -0.137}
{"sequence": "GTGTGCCA", "PBM E-score": -0.157}
{"sequence": "ATTATCCG", "PBM E-score": 0.475}
{"sequence": "AAGTCAAT", "PBM E-score": 0.012}
{"sequence": "ATTCCTAC", "PBM E-score": -0.0871}
{"sequence": "AGTATTTG", "PBM E-score": -0.218}
{"sequence": "GATGACGC", "PBM E-score": -0.108}
{"sequence": "AGAGCAAC", "PBM E-score": -0.287}
{"sequence": "GAAAGACA", "PBM E-score": 0.00775}
{"sequence": "CGCATGGC", "PBM E-score": 0.0142}
{"sequence": "CGGCAATC", "PBM E-score": 0.331}
{"sequence": "CTCATTCC", "PBM E-score": 0.253}
{"sequence": "ACATACCA", "PBM E-score": -0.0731}
{"sequence": "GGTCGGGA", "PBM E-score": 0.368}
{"sequence": "CCGGATCG", "PBM E-score": 0.413}
{"sequence": "ACGTAACT", "PBM E-score": -0.204}
{"sequence": "ATTGCGGG", "PBM E-score": 0.188}
{"sequence": "AACGTTAT", "PBM E-score": -0.00129}
{"sequence": "GTCTTGTA", "PBM E-score": -0.167}
{"sequence": "ATCTGGCC", "PBM E-score": -0.0094}
{"sequence": "ATACCGCC", "PBM E-score": 0.18}
{"sequence": "TAATTGCA", "PBM E-score": -0.0136}
{"sequence": "GTCTAGAC", "PBM E-score": -0.342}
{"sequence": "CCTCCCAC", "PBM E-score": -0.0773}
{"sequence": "TAATGGTA", "PBM E-score": -0.0303}
{"sequence": "TAGTAACA", "PBM E-score": -0.0586}
{"sequence": "AAATTGTA", "PBM E-score": -0.101}
{"sequence": "GCAGCTTA", "PBM E-score": -0.193}
{"sequence": "CCCCAAGA", "PBM E-score": -0.234}
{"sequence": "ACGAGTTA", "PBM E-score": -0.0115}
{"sequence": "ATTGTATG", "PBM E-score": -0.0615}
{"sequence": "AATGCCTC", "PBM E-score": -0.0527}
{"sequence": "CAGCCGTC", "PBM E-score": 0.129}
{"sequence": "CGCTATTC", "PBM E-score": 0.0269}
{"sequence": "TCAAACGA", "PBM E-score": 0.0128}
